# In PubChem BioAssay AID1466 (National Center for Advancing Translational Sciences (NCATS), 2008):
# About 10 (0.005%) of roughly 200,000 compounds were called active. Inconclusive means that the source gave no clear call. Such entries were picked first, then a sample of the others. Calls come from the whole dose curve; as a rule, active = well fitted inhibition curve with a large enough effect; inconclusive = small, poorly fitted or top-dose-only effect, or effect the other way, or another doubt; inactive = no such curve, though single readings can be large or run the other way. Potencies of inconclusive entries are left out as doubtful fits.
# Target: Lysosomal alpha-glucosidase (Homo sapiens) (UniProt P10253)
# Assay: qHTS Assay for Inhibitors of Human alpha-Glucosidase as a Potential Chaperone Treatment of Pompe Disease;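 for activity change, negative = inhibition: plate controls were uninhibited enzyme wells for no effect and no-enzyme background for full effect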
# Details: purified human GAA, 4-MU-alpha-glucoside fluorescence; activity change, negative = inhibition: at 76.9 µM (top of the series) unless noted
# Summary of the method: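 AC50 values come from Hill fits of compound titrations (up to 77 uM) against 4 nM human enzyme. Substrate 4-methylumbelliferyl-alpha-D-pyranoside at 400 uM, pH 5.0 citrate buffer, 20 min room temperature; fluorescence Ex 365/Em 440 after alkaline stop.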
# Potency is the fitted concentration of half-maximal effect; tags give direction and shape of the fitted curve.
Structure (SMILES),Potency,"activity change, negative = inhibition"
O=c1[nH]cnc2scc(C3COc4ccccc4O3)c12 (stereo unspecified),"inconclusive [inhibitor, single point]",
Cn1ncc(N=Cc2c(O)ccc3ccccc23)c1C(=O)Nc1cccc(Cl)c1,inactive,
CC1=Nc2ccc(C)cc2/C1=C/c1c(N)n2oc(C)cc2nc1=O,"inconclusive [inhibitor, partial curve, poor fit]",
Cc1ccc(Nc2c(-c3ccccn3)nc3ccc(C)cn23)cc1,"inconclusive [inhibitor, partial curve, poor fit]",
Cc1ccc(N(CC(=O)NC2CCCCCC2)S(=O)(=O)c2c(C)nn(C)c2C)cc1,"inconclusive [inhibitor, single point]",
COc1ccc(C2C(C(C)=O)=C(O)C(=O)N2c2nc3ccccc3s2)cc1OC (stereo unspecified),,inconclusive: -15.3% [inhibitor]
O=C(CCCC(=O)n1cnc2ccccc21)n1cnc2ccccc21,,inconclusive: -16.9% [inhibitor]
CCOC(=O)c1c(N)sc(C(=O)Nc2ccccc2F)c1C,,inconclusive: 16.9% [activator]
Cc1ccoc1C(=O)Nc1ccc(CC(=O)O)cc1,"inconclusive [inhibitor, single point]",
Cc1[nH]c2ccc(CNS(=O)(=O)c3ccc(S(=O)(=O)N4CCOCC4)cc3)cc2c1C,"inconclusive [inhibitor, single point]",
CCN1CCN(CCNC(=O)c2ccc(/C=C3/Sc4ccccc4N(Cc4ccccc4C)C3=O)cc2)CC1,"inconclusive [inhibitor, full curve, poor fit]",
O=C(Oc1cccc2c(O)cccc12)c1ccccc1,inactive,
Cc1cccc(/N=C/c2nc(-c3ccccc3Br)oc2O)n1,,inconclusive: -17.6% [inhibitor]
CCOC(=O)N1CCC(Nc2c(Nc3ccc(F)cc3)c(=O)c2=O)CC1,"inconclusive [activator, single point]",
O=C(COC(=O)/C(=C/c1cccs1)c1cccs1)NCc1ccccc1Cl,,inconclusive: -15.1% [inhibitor]
CN(C1CCCCC1)S(=O)(=O)c1ccc2c(c1)c(=O)c(C(=O)NCCN1CCCC1)cn2C,"inconclusive [inhibitor, partial curve]",
CCOC(=O)c1c(-c2ccc(C)o2)csc1NC(=S)NC(=O)c1ccc(F)cc1,"inconclusive [inhibitor, single point]",
COc1ccc(OC)c(-c2nnc(SCC(=O)N3CCOCC3)o2)c1,,inconclusive: -15.1% [inhibitor]
Nc1c2c(nc3ccccc13)N(C1CCCCC1)CC2,"inconclusive [activator, single point]",
C=CCOc1c2ccc(C(=O)NCc3ccc(OC)cc3)cc2nn1C,"inconclusive [inhibitor, single point]",
CC(C)NC(=O)/C=C/C(=O)O,"inconclusive [inhibitor, partial curve]",

Structure (SMILES),Potency,"activity change, negative = inhibition"
COc1ccc(N2CCC(CNC(=S)Nc3cccc(C)c3)C2)cc1 (stereo unspecified),"inconclusive [inhibitor, single point]",
CCCNC(=O)c1ccc2nc(-c3ccccc3)c(-c3ccccc3)nc2c1,"inconclusive [inhibitor, single point]",
Cc1nnc(SCc2cc(=O)[nH]c(=S)[nH]2)s1,,inconclusive: 16.3% [activator]
Cc1ccc(-c2nn(-c3ccccc3)cc2/C=C(\C#N)C(=O)NCc2ccccc2)cc1,"inconclusive [activator, partial curve]",
COc1cc(NC(=O)c2ccc3c(c2)OCO3)ccc1NC(=O)c1cccs1,"inconclusive [activator, partial curve]",
NS(=O)(=O)c1ccc(CCNC(=O)c2ccc(Cn3c(=O)[nH]c4ccccc4c3=O)cc2)cc1,"inconclusive [inhibitor, single point]",
CN(C)S(=O)(=O)c1ccc(N2CCCC2)c(C(=O)Nc2ccccc2N2CCOCC2)c1,"inconclusive [inhibitor, full curve]",
COCCCNC(=O)c1c(N)n(-c2ccc(S(N)(=O)=O)cc2)c2nc3ccccc3nc12,"inconclusive [activator, partial curve]",
S=C(N/N=C1\CCc2ccccc21)NC1CCCCC1,"inconclusive [inhibitor, full curve]",
O=C(COc1cccc2ccccc12)NNC(=O)Nc1ccccc1,,inconclusive: -15.8% [inhibitor]
CC(C)(C)n1nnnc1C(c1ccc(Cl)cc1)N1CCCc2ccccc21 (stereo unspecified),"inconclusive [inhibitor, full curve]",
O=C(CSCC(=O)N1CCCCC1)OCC(=O)c1c[nH]c2ccccc12,"inconclusive [inhibitor, partial curve]",
CCCOc1cccc(-c2nc3ccccc3c(=O)o2)c1,,inconclusive: 7% [activator]
O=C(N/N=C/c1cccs1)c1cccc(S(=O)(=O)Nc2ccc(Cl)cc2)c1,"inconclusive [activator, single point]",
Cc1c(C#N)sc(C(N)=O)c1C,"inconclusive [inhibitor, single point]",
Cc1nnc(SCC(=O)NNC(=O)c2ccc(Cl)cc2)n1CC1CCCO1 (stereo unspecified),,inconclusive: 15.4% [activator]
O=C1CC(N2CCN(C3CC(=O)N(CCc4ccccc4)C3=O)CC2)C(=O)N1CCc1ccccc1 (stereo unspecified),"inconclusive [inhibitor, partial curve, poor fit]",
COc1ccc(S(=O)(=O)N2CCOCC2)cc1NC(=O)CN(C)Cc1c(F)cccc1Cl,"inconclusive [inhibitor, partial curve]",
Cc1[nH]c(=O)[nH]c(=O)c1S(=O)(=O)Nc1ccc(Oc2ccccc2)cc1,"inconclusive [inhibitor, full curve, poor fit]",
COc1ccc(CCN(C(=O)c2cccc(F)c2)C2CC(=O)N(c3ccc(OC)cc3)C2=O)cc1 (stereo unspecified),"inconclusive [inhibitor, full curve]",
